# Results taken from PubChem BioAssay AID686978 (National Center for Advancing Translational Sciences (NCATS), 2013).
# The whole screen tested about 420,000 compounds, of which about 64,000 (15%) were called active. This list was built around the results that the source calls inconclusive (neither active nor inactive); the mix of calls is not that of the screen. The call rests on the fitted dose curve; in most records, active means well fitted inhibition curve with a large enough effect; inconclusive means small, poorly fitted or top-dose-only effect; inactive means flat fitted curve, though single readings scatter. Potencies of inconclusive entries are left out as doubtful fits.
# Test: qHTS for Inhibitors of human tyrosyl-DNA phosphodiesterase 1 (TDP1): qHTS in cells in absence of CPT; further: nearly all actives have a fitted effect of over 55% in size
# Conditions: DT40 Tdp1-/- hTDP1 cells, no CPT, ATP luminescence, 48 h; activity change, negative = growth inhibition: at 46.2 µM (top of the series)
# Method in brief: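 Readout: luminescence from CellTiter-Glo after 30 min in the dark at RT. Cells: DT40 Tdp1-/- with stable hTDP1, 400/well. Exposure: compounds alone, ≥48 hr, 37 °C.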
# On the % scale 0 is the no-effect control and ±100 the full control effect; potency means the concentration at half of the fitted maximal effect; tags describe the fitted curve by direction and shape.
SMILES,Potency,"activity change, negative = growth inhibition"
C=CCn1c(SCCN2C(=O)c3ccccc3C2=O)nc2scc(-c3ccccc3)c2c1=O,"inconclusive [inhibitor, full curve, poor fit]",
O=C(COC(=O)c1ccc(F)cc1)NC1CC1,inactive,
CCOC(=O)c1nnc(-c2ccccc2)nc1Oc1ccccc1Cl,"inconclusive [inhibitor, single point]",
CCc1ccc(-n2c(=O)c3cccnc3n2CC(=O)Nc2cc(OC)ccc2OC)cc1,"inconclusive [inhibitor, single point]",
O=c1[nH]c(CSc2ccccn2)nc2c1cnn2-c1ccccc1,"inconclusive [inhibitor, single point]",
CCOC(=O)C1CCN(C(=O)COC(=O)c2ccc(=O)n(Cc3ccccc3)n2)CC1,inactive,
CCOc1cc(-c2c(C#N)c(N)nc3c2CCc2ccccc2-3)ccc1O,active: 14.6 µM,
COC(=O)c1ccc(CC(=O)c2ccc(O)cc2O)o1,"inconclusive [inhibitor, single point]",
CCN(CC)S(=O)(=O)c1ccc(/C=C/C(=O)OCC(=O)c2c(N)n(C)c(=O)n(C)c2=O)cc1,"inconclusive [inhibitor, single point]",
Cc1nc(SCCc2ccccc2)[nH]c(=O)c1C,"inconclusive [inhibitor, single point]",
COc1ccc(C(=O)Nc2ccc(S(=O)(=O)Nc3cc(C)nc(C)n3)cc2)c(OC)c1,active: 23.1 µM,
O=C(N/N=C/c1ccccn1)c1ccc(S(=O)(=O)N2CCCCCC2)cc1,inactive,
Cn1cnnc1SCC(=O)Nc1cc(S(=O)(=O)N2CCCCC2)ccc1Cl,inactive,
COc1ccc(C(=O)c2ccccc2C(=O)c2ccccc2)cc1,active: 16.4 µM,
CC(Cc1cccs1)NC(=S)Nc1ccc(Cl)cc1 (configuration not stated),"inconclusive [inhibitor, single point]",
Cc1cccc(N2C(=O)/C(=C\c3ccc(C(=O)O)cc3)c3ccccc3C2=O)c1,"inconclusive [inhibitor, single point]",
Cc1ccc(S(=O)(=O)N(C)c2ccc(C(=O)NCCc3ccccc3)cc2)cc1,"inconclusive [inhibitor, single point]",
O=C(c1ccccc1)N1CCCC(c2nc3c(nnn3Cc3ccccc3)c(=O)[nH]2)C1 (configuration not stated),inactive,
Cc1ccc2nc(C)cc(N/N=C/c3ccccc3O)c2c1,inactive,
COc1cc(OC)cc(C(=O)Nc2nnc3n2CCS3)c1,"inconclusive [inhibitor, single point]",
C=CCn1c(SCC(=O)NCC2CCCO2)nc2scc(-c3ccccc3)c2c1=O (configuration not stated),"inconclusive [inhibitor, single point]",
Cc1ccc(C(=O)Nc2nc(-c3nnn(-c4cccc(C(F)(F)F)c4)c3C)ns2)cc1,active: 4.11 µM,
Cc1cccc(C)c1-n1nnnc1C1(C)CCC(=O)N1Cc1cccc(C(F)(F)F)c1 (configuration not stated),active: 23.1 µM,
CCCCN1C[C@H](CSC)[C@@H](CC(=O)Nc2ccc(Br)cc2)C1=O,active: 23.1 µM,

SMILES,Potency,"activity change, negative = growth inhibition"
O=c1[nH]c(CSc2ncnc3sccc23)nc2ccccc12,inactive,
CCCN(CCC)CC(O)COc1ccccc1C(=O)Nc1ccccc1 (configuration not stated),"inconclusive [inhibitor, single point]",
O=C(NCCCc1ccccc1)c1cccc(NC(=O)C2CCCC2)c1,inactive,
Cc1ccc(SCC(=O)N(C)CC(=O)Nc2cccc(F)c2)c(C)c1,"inconclusive [inhibitor, single point]",
CN(Cc1cccc(-n2cccn2)c1)Cc1cn(C)nc1-c1ccccc1F,"inconclusive [inhibitor, single point]",
Cc1noc(C)c1CSc1ccccc1C(=O)N1CCN(c2ccccc2)CC1,"inconclusive [inhibitor, single point]",
O=C(C[n+]1ccccc1)N1c2ccccc2Sc2ccccc21,"inconclusive [inhibitor, single point]",
C=CCNC(=O)C(=O)NCC1CCCN1S(=O)(=O)c1cccs1 (configuration not stated),inactive,
Cc1ccccc1N=C1c2ccccc2C(=O)C1[N+](=O)[O-] (configuration not stated),,inconclusive: -33.6% [inhibitor]
Cc1cc(C)c(NC(=O)CCCn2c(C)c3cnn(-c4ccccc4)c(=O)c3c2C)c(C)c1,active: 23.1 µM,
CC1(c2nnc(Cc3ccccc3)o2)CC(c2cccc(Cl)c2)=NO1 (configuration not stated),"inconclusive [inhibitor, partial curve]",
Cc1ccc(CCNC(=O)c2cn(C)c3ccc(S(=O)(=O)N4CCC(C)CC4)cc3c2=O)cc1,"inconclusive [inhibitor, full curve, poor fit]",
O=C(NCC1CCCO1)c1cc2ccccc2nc1Cl (configuration not stated),inactive,
C/C(=N\NC(=O)c1cccc(S(=O)(=O)N2CCOCC2)c1)c1ccc(C#N)cc1,"inconclusive [inhibitor, single point]",
Cc1ccc(OCC(=O)NC2CCS(=O)(=O)C2)c([N+](=O)[O-])n1 (configuration not stated),"inconclusive [inhibitor, single point]",
CC(C)CC(=O)Nc1nnc(SCc2cc(=O)n3ccccc3n2)s1,"inconclusive [inhibitor, partial curve]",
CCC(=O)c1ccc(N2CCN(C(=O)c3ccccc3)CC2)c(F)c1,active: 7.31 µM,
CCN(CC)S(=O)(=O)c1ccc2[nH]cc(C(=O)NCCc3ccccc3)c(=O)c2c1,active: 14.6 µM,
CC(=O)CC(=O)Nc1ccn(-c2ccccc2)n1,inactive,
COc1cccc2cc(-c3nc(-c4cccs4)cs3)c(=O)oc12,"inconclusive [inhibitor, partial curve]",
CCOC(=O)C1CCN(C(=O)c2ccc(OCC(=O)Nc3ccc(OCC)cc3)c(OC)c2)CC1,active: 16.4 µM,
COc1ccc(N2CCN(C(c3cccs3)c3nnnn3C3CCCC3)CC2)cc1 (configuration not stated),active: 16.4 µM,
COc1ccc(C(=O)NC2CC(C)(C)Cc3c2cnn3-c2ccccc2)c(OC)c1 (configuration not stated),"inconclusive [inhibitor, single point]",
Cc1ccc(C(=O)NC2CCCC(C)C2C)cc1S(=O)(=O)N1CCCCC1 (configuration not stated),"inconclusive [inhibitor, single point]",

SMILES,Potency,"activity change, negative = growth inhibition"
CCN(Cc1ccccc1)C(=O)c1ccc2c(=O)n3c(nc2c1)CCC3,,inconclusive: -31.5% [inhibitor]
O=C(Nc1ccccc1Cl)C1C2CCC3C(CCC21)C3(Cl)Cl (configuration not stated),,inconclusive: -9.74% [inhibitor]
CC(C)=CCc1c(O)cc(O)c2c(=O)c3c(CC=C(C)C)c(O)ccc3oc12,"inconclusive [inhibitor, single point]",
COC(=O)C1C(=O)C2=C(CC1C)NC(C)=C(C(=O)OCc1ccc(OC)cc1)C2c1ccc(C)o1 (configuration not stated),active: 10.3 µM,
CCCCN(C)C(=O)Cn1nc(-c2ccc(Cl)cc2)ccc1=O,inactive,
Cc1ccc(C)c(S(=O)(=O)Nc2ccccc2C(=O)Nc2ccc(S(=O)(=O)Nc3ncccn3)cc2)c1,inactive,
COc1ccc(-c2nc3c(C)cc(Br)cn3c2CC2CCCCC2)cc1OC,"inconclusive [inhibitor, single point]",
CCn1ccc2cc(S(=O)(=O)N3CCC(C(=O)NCCc4ccccc4)CC3)ccc21,inactive,
CC1CCCC(NC(=O)c2cc(S(=O)(=O)N3CCCCC3)ccc2Cl)C1C (configuration not stated),active: 25.9 µM,
O=C(CCNC(=O)c1ccc(Cl)cc1)Nc1ccc(S(=O)(=O)N2CCOCC2)cc1,inactive,
CC(C)(C)c1[nH]nc2c1C(c1ccsc1)C(C#N)=C(N)O2 (configuration not stated),"inconclusive [inhibitor, single point]",
O=C(Cc1ccccc1)NCCc1c[nH]c2ccccc12,inactive,
CC(=O)C1=C(c2ccc(Br)cc2)N(C(C)=O)n2c(nnc2C2CCCCC2)S1,,inconclusive: -24.1% [inhibitor]
Cc1cccc(CNC(=O)c2ccc(C)c(-n3c(C)nc4cccnc43)c2)c1,"inconclusive [inhibitor, single point]",
CC1(C)OC(=O)N(c2ccccc2)C12C=Cc1cc(Br)ccc1O2 (configuration not stated),"inconclusive [inhibitor, single point]",
CCN(CC(=O)Nc1ccc2c(c1)OCCO2)C(=O)CCc1ccccc1Cl,"inconclusive [inhibitor, partial curve]",
Cc1ccccc1NS(=O)(=O)c1ccc(C(=O)NCC(c2ccco2)N(C)C)cc1 (configuration not stated),"inconclusive [inhibitor, partial curve]",
Cc1ccc2c(c1)S/C(=C\c1cccc[n+]1C)N2CCO,active: 1.64 µM,
Cc1nc2scc(-c3ccc(Cl)cc3)c2c(=O)n1N,"inconclusive [inhibitor, single point]",
COc1cccc(-n2cc(C(=O)OCc3ccc(Cl)cc3)c3ccccc3c2=O)c1,"inconclusive [inhibitor, single point]",
Nc1nc(=O)n(C2CC(O)C(CO)O2)cc1Cl (configuration not stated),inactive,
C[C@@H]1CN([C@H](C)CO)C(=O)CCCn2nncc2CO[C@H]1CN(C)Cc1ccc2c(c1)OCCO2,,inconclusive: -34.3% [inhibitor]
Cc1cc(N=Nc2ccccc2)cc(C)c1NC(=O)C(F)(F)F,"inconclusive [inhibitor, single point]",
Fc1ccc(-[n+]2nc(Nc3ccccc3)sc2-c2cccc(Cl)c2Cl)cc1,"inconclusive [inhibitor, single point]",
